Several values for one entry are separate records, joined by “and”; a condition that tells them apart may be missing. Identical values can stand only once. About 230 (0.21%) of roughly 110,000 compounds showed an effect of 50% or more. The list shows a part of the results.
The compounds below were run against DPAP1 (Plasmodium falciparum, UniProt Q8IIJ9) (assay: primary screen, percent inhibition; read by cleavage of a fluorogenic dipeptide substrate; higher = more effect of the substance).
Parameters: species or system P. falciparum D10 trophozoite lysates; single well
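Also: 30 min substrate incubation versus DMSO and 10 µM JCP410 controls.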

Sequence of DPAP1 (Q8IIJ9 whole entry, looked up): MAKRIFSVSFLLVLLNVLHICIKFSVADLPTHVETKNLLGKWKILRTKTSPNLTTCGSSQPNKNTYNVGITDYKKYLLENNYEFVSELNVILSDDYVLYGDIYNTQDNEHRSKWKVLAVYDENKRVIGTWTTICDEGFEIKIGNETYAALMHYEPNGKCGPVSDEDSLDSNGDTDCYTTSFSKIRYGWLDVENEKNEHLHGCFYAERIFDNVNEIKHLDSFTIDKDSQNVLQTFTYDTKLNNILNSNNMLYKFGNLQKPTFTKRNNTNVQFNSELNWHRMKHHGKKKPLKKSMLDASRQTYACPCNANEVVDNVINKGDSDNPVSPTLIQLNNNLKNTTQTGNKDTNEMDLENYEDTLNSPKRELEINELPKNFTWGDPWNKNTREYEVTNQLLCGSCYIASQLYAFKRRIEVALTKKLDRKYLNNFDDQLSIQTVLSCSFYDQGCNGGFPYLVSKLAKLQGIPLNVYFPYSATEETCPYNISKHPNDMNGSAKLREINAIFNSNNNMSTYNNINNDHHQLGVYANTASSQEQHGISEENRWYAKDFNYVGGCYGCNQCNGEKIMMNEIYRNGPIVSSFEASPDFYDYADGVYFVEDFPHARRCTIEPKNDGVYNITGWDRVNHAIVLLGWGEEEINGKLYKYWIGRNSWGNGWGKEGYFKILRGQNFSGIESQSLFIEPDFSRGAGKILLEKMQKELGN

Row | SMILES | % Inhibition @ 10 uM
1 | Cc1c(C(=O)N2CCCCC2C)sc2nc(-c3ccc(F)cc3)cn12 (stereo not drawn) | -1.89%
2 | CC1=C(C)CC(C(=O)NC2CCCCC2)C(C(=O)O)C1 (stereo not drawn) | 2.03%
3 | O=C(O)C(Cc1ccccc1)n1cnnn1 (stereo not drawn) | -0.426%
4 | CN1CCN(C(=O)c2[nH]c3ccccc3c2Sc2ccc(Cl)cc2)CC1 | -6.47%
5 | Cc1cc(C)c(S(=O)(=O)NCC23C=CC(O2)C2C(=O)N(c4ccc(Cl)cc4)C(=O)C23)c(C)c1 (stereo not drawn) | 2.64%
6 | CCOC(=O)c1cc(-c2ccccc2)n(CC(=O)NC(C)(C)C)c1C | -5.76%
7 | CC(C)NC(=O)c1nc(-c2cccc(F)c2)n2c1CCCCC2 | -10.7%
8 | O=C(Cn1nc(Cc2ccncc2)c2ccccc2c1=O)NCc1ccccc1 | 4.41%
9 | COc1ccc(NC(=O)C2=C(C)Nc3nc(CCCO)nn3C2c2ccc(Br)cc2)cc1 (stereo not drawn) | -0.123%
10 | Cc1ccc(-c2cn3nc(N4CCCC(C(=O)NCc5cccs5)C4)sc3n2)cc1 (stereo not drawn) | 5.62%
11 | CCOC(=O)C1=C(C)N=c2s/c(=C\c3ccc(C)cc3)c(=O)n2C1c1ccc2c(c1)OCO2 (stereo not drawn) | 3.32%
12 | Cc1cccc(OCCn2cccc2/C=C2/C(=N)N3C=CSC3=NC2=O)c1 | 3.59%
13 | O=C(COc1ccccc1)Nc1ccccc1F | 2.13%
14 | CC(=O)c1cccc2c1N=C1CC(C)(C)CC(=O)C1=CN2 | -0.736%
15 | CCOC(=O)N1CCN(CN2C(=O)/C(=N/c3ccc(OC)cc3)c3ccccc32)CC1 | -0.725%
16 | Clc1cccc(N2CCN(Cc3cccc4ccccc34)CC2)c1 | 1.55%
17 | CCOC(=O)c1ccc(CNC(=O)Cn2nnc(-c3ccccc3)n2)o1 | -4.04%
18 | O=C(c1cccs1)N1CCN(c2cccc(Cl)c2)CC1 | -1.05%
19 | CC1=C(CCN2CCN(c3cccc(C(F)(F)F)c3)CC2)C(C)(C)CCC1 | -3.5%
20 | O=C(COc1ccc(Cl)cc1Cl)c1ccc(Cl)cc1 | 1.66%
21 | COc1ccc(-c2noc(CN(C)S(=O)(=O)c3c(C)cc(C)cc3C)n2)cc1 | 0.758%
22 | N#Cc1ccc(NC(=O)CSc2ncccn2)cc1 | -1.44%
23 | Cc1cccc(CCNc2nc3ccccc3n3cnnc23)c1 | 1.86%
24 | Cc1nnc2c(Oc3cccc4ccccc34)nc3ccccc3n12 | 1.84%
25 | CCC(C)NC(=O)CCc1cn(CC)c2ccccc12 (stereo not drawn) | -3.44%
26 | CC(C)(C)c1ccc(OCC(O)Cn2c(CO)nc3ccccc32)cc1 (stereo not drawn) | 3.35%

Row | SMILES | % Inhibition @ 10 uM
27 | OC1(C#CC#CC2(O)CCCCC2)CCCCC1 | 4.73%
28 | COc1ccc(-c2nn(C)c3sc(C(=O)N4CC(C)CC(C)C4)cc23)cc1OC (stereo not drawn) | 4.51%
29 | Cc1cc(C)cc(Oc2nc3c(C)cccn3c(=O)c2/C=C(\C#N)C(=O)NCc2ccco2)c1 | 3.63%
30 | Cn1c(SCC(=O)NCCOCCO)nc2sc3c(c2c1=O)CCCC3 | -7.3%
31 | CC(C)Oc1ccc(-c2cc(C(=O)Nc3ccc(S(N)(=O)=O)cc3)c3ccccc3n2)cc1 | 2.79%
32 | CC(CC(=O)O)(C(=O)O)c1ccccc1 (stereo not drawn) | -9.18%
33 | CCCN1CCC(NCCN(C)C)CC1 | -3.6%
34 | Cc1nc2nc(NC(=O)Cc3ccc(Cl)cc3)nn2c(O)c1C | 3.66%
35 | Cc1c(Cl)c([N+](=O)[O-])nn1CC(=O)N1CCN(C)CC1 | 5.03%
36 | O=C(NC1CCC(NC(=O)c2cccc(F)c2)CC1)c1cccc(F)c1 (stereo not drawn) | 2.22%
37 | O=C(O)CNc1nn[nH]n1 | -0.0709%
38 | CC(=O)Nc1ccc(CN2CC(C)CC(C)C2)cc1 (stereo not drawn) | 5.03%
39 | O=C(Cc1cccc2ccccc12)NCC1(c2ccccc2)CCOCC1 | 7.73%
40 | COC(=O)C1=CN(Cc2ccc(F)cc2)C=C(C(=O)OC)C1c1cccc(OCc2ccccc2)c1 | -6.93%
41 | CN(C)CCNc1oc(/C=C/c2cccs2)nc1C#N | 3.27%
42 | CCCC1CCC(C2CCC(OC(=O)CC(=O)c3ccc(Br)cc3)CC2)CC1 (stereo not drawn) | 2.23%
43 | CN1CCCC1C(O)(c1ccccc1)c1ccccc1 (stereo not drawn) | -0.582% and -3.6%
44 | COc1ccc(NC(=O)CN(c2ccc(C(C)C)cc2)S(C)(=O)=O)cc1OC | -7.23%
45 | c1ccc2c(CN3CCOCC3)cccc2c1 | -1.78%
46 | COc1ccc(-c2cc(C)no2)cc1S(=O)(=O)N1CCC(Cc2ccccc2)CC1 | 3.7%
47 | CC(NC(=O)c1cnn(-c2ccccc2)c1-n1cccc1)c1ccccc1 (stereo not drawn) | -1.8%
48 | CCc1nn(C(C)C(=O)NC(C)CCc2ccco2)c(=O)c2cc3occc3n12 (stereo not drawn) | 1.38%
49 | Cc1ccc(NC(=O)COc2ccc(CO)cc2Cl)cc1 | 2.25%
50 | CCNC(=O)c1ccc(N2C(=O)CSC23C(=O)Nc2ccccc23)cc1 (stereo not drawn) | -7.23%
51 | CCN1CCN(Cc2nc3ccccc3c(=O)n2-c2ccc(F)cc2)CC1 | -1.17%
52 | O=C(Cn1ncc2c3ccccc3nc-2c1O)NCc1ccc2c(c1)OCO2 | -7.73%

Row | SMILES | % Inhibition @ 10 uM
53 | N#CC1=C2SCC(O)(c3ccc(F)cc3)N2C(=O)CC1c1ccc(C(F)(F)F)cc1 (stereo not drawn) | 6.31%
54 | CCc1ccc(N(CC(=O)N2CCN(C)CC2)S(=O)(=O)c2ccccc2)cc1 | -2.74%
55 | Clc1ccc(Nc2ccc3ccccc3n2)cc1 | 5%
56 | Cc1cc2ncn(CC(O)COCc3ccccc3)c2cc1C (stereo not drawn) | -0.988%
57 | Cc1ccc(C2=NS(=O)(=O)N(C)C(C(=O)NCC34CC5CC(CC(C5)C3)C4)=C2)cc1 | -2.84%
58 | Cc1ccc(OCCCN2CCCCC2)cc1 | 2.7%
59 | COc1cc(/C=C2\SC(N3CCCC3)=NC2=O)cc(OC)c1OC | 7.3%
60 | CCOC(=O)c1sc(NC(=O)c2ccc(OC)c(OC)c2)nc1C | 9.47%
61 | Nc1nc(SCC(=O)NCc2ccccn2)nc2sc3c(c12)CCCC3 | 2.37%
62 | CN(c1ccc(O)cc1)c1ccc2nonc2c1[N+](=O)[O-] | 4.15%
63 | Cc1ccc(CN2CCC(CNS(=O)(=O)c3cc(-c4cc(C)no4)ccc3C)C2)cc1 (stereo not drawn) | -5.69%
64 | Clc1ccc(-c2nc(Cc3ccccc3)no2)cc1 | 3%
65 | Cc1ccccc1/C=C/[n+]1ccccc1 | 1.57%
66 | O=C(CCNC(=O)c1ccc(Br)o1)NCc1ccccc1Cl | 3.08%
67 | COc1ccc(S(=O)(=O)NCc2ccc(C)cc2)cc1OC | 3.47%
68 | CN(c1ccc(C(=O)NC2CCCCCC2)cc1)S(C)(=O)=O | 5.66%
69 | O/N=C/c1ccc(-c2ccc(Br)cc2)o1 | -3.98%
70 | CCC1CCCCN1c1c(-c2ccc(C)cc2)c(=O)c1=O (stereo not drawn) | -1.4%
71 | CC(C(=O)c1ccccc1)n1nnc2sc3c(c2c1=O)CCCC3 (stereo not drawn) | 7.04%
72 | N#Cc1cccc(NC(=O)c2ccccc2C(=O)O)c1 | -4.08%
73 | CN(C)c1oc(/C=C/c2cccs2)nc1C#N | -3.49%
74 | CCOc1ccc(-c2cn3c(n2)sc2cc(C(=O)NC(C)CC)ccc23)cc1 (stereo not drawn) | 1.09%
75 | Cc1cc(N2CCC(C(=O)N(C)CCC#N)CC2)n2nc(C)c(-c3ccc(Cl)cc3)c2n1 | -5.58%
76 | CC(C)CCNC(=O)CSc1nc2ccccc2c2nc(-c3ccccc3)nn12 | -1.15%
77 | CC(=O)N1c2ccc(C)cc2C(Nc2ccc(C)cc2)CC1C (stereo not drawn) | 1.84%
78 | COc1cccc(C2=NOC(C(=O)Nc3cc(C)on3)C2)c1OC (stereo not drawn) | 8.81%

Row | SMILES | % Inhibition @ 10 uM
79 | CCc1ccc(-n2nnc(-c3nsc(NC(=O)c4cccc(F)c4)n3)c2C)cc1 | -2.85%
80 | COc1cc(OC)c(C(=O)NCc2nc(-c3ccc(Cl)cc3)no2)cc1OC | -1.22%
81 | N#Cc1nc(COc2ccc(Cl)cc2)oc1NCCc1ccccc1 | 0.726%
82 | COc1ccc(-c2nc(Cc3c[nH]c4ccccc34)sc2C)cc1 | 7.17%
83 | O=C(NCCCO)/C(=C\c1ccco1)NC(=O)c1ccc(Br)o1 | -0.941%
84 | Cc1ccc(C(=O)Nc2cccc(C(F)(F)F)c2)cc1 | -0.351%
85 | CC1(C)CC2=Nc3ccccc3NC(/C=C/c3ccccc3)C2=C(O)C1 (stereo not drawn) | -3.27%
86 | COc1ccc(CCNC(=O)c2ccc(Cn3cc(Cl)cn3)cc2)cc1 | 0.413%
87 | CC1=C(C#N)C(=O)N(CCO)C(=O)/C1=C\c1ccc(-c2ccc(C)c(Cl)c2)o1 | -1.26%
88 | CC1CCCC(C)N1S(=O)(=O)c1ccc(Br)cc1 (stereo not drawn) | 0.605%
89 | CCC(C(=O)NC1CCCC(C)C1C)n1c2ccccc2c2cnnc(O)c21 (stereo not drawn) | -0.281%
90 | Cc1nn(-c2cccc3ccccc23)c(=O)c2ccccc12 | -2.44%
91 | CCc1ccccc1NC(=O)COc1cccc2ccc(C)nc12 | -6.05%
92 | O[C@@H]1CCN[C@H]2CCCC[C@H]12 | -8.19%
93 | COc1ccc(N2C(=O)C(Cl)=C(Nc3cccc(OC)c3)C2=O)cc1 | -1.3%
94 | COc1ccc(-c2cc(-c3ccccc3)nc(N3CCCC3)n2)cc1OC | 0.827%
95 | COC(=O)c1sccc1NC(=O)COCc1cc(-c2ccc3c(c2)OCO3)on1 | -1.62%
96 | Cc1ccccc1CCNCc1c(C(=O)O)n(Cc2ccc(Cl)cc2)c2ccccc12 | 1.17%
97 | CC1=NN(C(=O)Cc2ccccc2)C(C)(C)C1 | 1.62%
98 | N#Cc1c(NC(=O)c2cccc(F)c2F)sc2c1CCCC2 | -4.67%
99 | Cc1ccc2oc(=O)c3cc(C(=O)NCCCN4CCCC4=O)sc3c2c1 | 0.521%
100 | N=C1/C(=C\c2ccc(O)cc2)C(=O)N=C2SC(N3CCOCC3)=NN12 | 0.0579%
101 | C/C(Cl)=C/CSc1nc2c(c(=O)[nH]c(=O)n2C)n1CCc1ccccc1 | 3.05%
102 | Cc1nc(N2CCOCC2)c2c(C)c(C(=O)NC(C)c3ccccc3)sc2n1 (stereo not drawn) | -3.21%
